Over roughly 33,000 sequences, “E-score (-0.5 to 0.5)” has its median near -0.016; the highest 2% begin near 0.31. The list shows a part of the results.
molecular target: Cst6 (UniProt P40535); test: PBM E-score (8-mer binding enrichment) (E-score (-0.5 to 0.5)); higher = stronger / more preferred TF binding; most listed sequences are background and not binding sites; conditions: protein concentration: 200 nM; construct: GST-DNA-binding domain
Summary of the method: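 Detection of bound protein used fluorescent anti-GST, with scans normalised by masliner. The proteins were GST-tagged yeast transcription factors applied at about 100-200 nM to universal all-10-mer Agilent arrays made double-stranded by primer extension. Each ungapped eight-base word, pooled with its reverse complement, was scored with an E-score from the Universal PBM Analysis Suite.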

| Sequence | PBM E-score |
| --- | --- |
| AGAGCCAT | -0.0246 |
| GCCAGTCC | -0.307 |
| AGACCCCG | -0.234 |
| CTGCACTC | -0.132 |
| CAGTTCCG | -0.259 |
| AAATTTGG | 0.0727 |
| ATAAGCGC | 0.0378 |
| ATGAGTCC | -0.159 |
| ACTGTCCA | -0.172 |
| CCAAGACG | -0.0335 |
| CTTGTCGA | -0.117 |
| AGCTGGTC | -0.206 |
| AACCTATA | 0.152 |
| CGTCTAAG | 0.0362 |
| GTTGTCTA | -0.0559 |
| ATCGACAG | 0.117 |
| CACACAGA | 0.0233 |
| AGCCTAAG | -0.146 |
| TATCGATA | -0.0701 |
| ACCTGGAT | -0.315 |
| GGAGTAGA | -0.0383 |
| ACGCGTAT | 0.175 |
| CGATGCGC | 0.00895 |
| CGTAAAAG | 0.196 |
| AACGATAT | 0.266 |

| Sequence | PBM E-score |
| --- | --- |
| CAACTCAA | 0.0831 |
| CTGAGGCA | 0.0318 |
| AAAATCGA | 0.106 |
| GCGTCTGA | -0.0724 |
| AAAATCCG | 0.0885 |
| ATACTATA | 0.0901 |
| GTTAGTCA | 0.0776 |
| CACGCAAG | 0.092 |
| ACTGCACC | -0.125 |
| CGGGGACA | -0.237 |
| ATGATGGG | -0.078 |
| AGTGCCGG | -0.116 |
| AACCGTGT | -0.0417 |
| ACGAGACG | -0.087 |
| GTTTGCCA | 0.057 |
| AAACCCAT | 0.155 |
| CACTAAGC | 0.0171 |
| AGCTTGAT | -0.0451 |
| ATAGCAAG | 0.111 |
| GCGTCAAC | 0.335 |
| CTTAAGAC | -0.0871 |
| CCGCGTAA | 0.111 |
| ATGCGCTA | -0.046 |
| TAGTCAAA | 0.189 |
| CATTGAGC | -0.0513 |

| Sequence | PBM E-score |
| --- | --- |
| CGATCTTA | 0.0184 |
| CGAAGAGC | -0.132 |
| ACGGTCCT | -0.274 |
| TTACGGAA | 0.178 |
| CGCGCGAG | 0.0316 |
| AGAACAAA | 0.34 |
| CAGCTAGC | -0.104 |
| AAAGTGGG | 0.0266 |
| AATTATAT | 0.188 |
| AATGGACT | -0.156 |
| CTGACTGA | -0.149 |
| TTTAGAAA | 0.189 |
| CGATCTCC | -0.127 |
| CGGTTTAC | -0.0976 |
| AGTCCTGA | -0.0814 |
| GCTCTATA | -0.114 |
| ACACCAGA | 0.115 |
| AAACGTTA | 0.0758 |
| CCAAGGGC | -0.271 |
| CGGAACCG | -0.127 |
| CGTAACCA | 0.24 |
| CCTTCCCC | -0.132 |
| CGCATGTC | 0.215 |
| GATACATA | 0.117 |
| CACGAGAG | -0.144 |

| Sequence | PBM E-score |
| --- | --- |
| AATGGGAT | -0.17 |
| GACCTGAA | -0.127 |
| CTAATCTC | 0.0468 |
| TCAGCTAA | 0.0376 |
| AATGGGAG | -0.0589 |
| ACGTTGTG | 0.0103 |
| CGGCGACA | 0.0179 |
| GAGAAATC | 0.0872 |
| ACGTCTCC | 0.0103 |
| GACTCCGA | -0.105 |
| CCAAACGC | -0.0355 |
| TGGGTAAA | -0.164 |
| TAAAAACA | 0.231 |
| GCACAGCC | -0.125 |
| ACCCGATG | -0.0718 |
| GCCGACAA | -0.0103 |
| ATCTTTGA | 0.0793 |
| CTTCAGCA | -0.0118 |
| AAGACTAG | -0.266 |
| GTCTTGAA | -0.0497 |
| AAGCCCGT | -0.275 |
| GATCATGC | -0.137 |
| CTAGGGTA | -0.316 |
| ACCTCGAC | -0.0173 |
| GTTCCAAA | 0.0735 |

| Sequence | PBM E-score |
| --- | --- |
| AATAGCAG | -0.162 |
| AATCGGTG | 0.00732 |
| ATTCTATC | 0.198 |
| AGGACACC | -0.0829 |
| GGCATATA | 0.184 |
| ACCGCTGA | 0.0445 |
| AATAAACA | 0.208 |
| AGGTGGGA | -0.228 |
| AGCCCACC | -0.257 |
| GGGAAAAA | 0.0634 |
| ACATTGAT | 0.181 |
| AGTTGCCC | -0.202 |
| AAGGCAAG | -0.00658 |
| AGGAAGTC | -0.206 |
| AAGTCAGT | 0.0407 |
| AGTAATGA | 0.247 |
| CGCGCCTC | 0.0846 |
| GCCCGACC | -0.276 |
| AGTAGATA | 0.233 |
| CGAGGAGA | -0.295 |
| ACAGCGCG | -0.0283 |
| ATCTGTGC | 0.053 |
| CGGATTCC | -0.15 |
| AGGTAACC | -0.0846 |
| ACACCAAA | 0.212 |

| Sequence | PBM E-score |
| --- | --- |
| GCTGGAAC | -0.184 |
| GCACGTGC | 0.16 |
| CGTCACGC | 0.441 |
| AAAACAAA | 0.237 |
| GCATTTAC | 0.0548 |
| AATAGTTG | 0.0973 |
| CCCGATCC | -0.322 |
| CAGAGGTC | -0.226 |
| GAGGGCGA | -0.338 |
| CTGATTCC | -0.0906 |
| AAGCACGA | 0.0616 |
| CACGCCAC | -0.00611 |
| CTTTGGGA | -0.148 |
| CTGTACAG | -0.083 |
| AGGATCCT | -0.0938 |
| CCCCACAA | 0.00463 |
| ACATTACG | 0.246 |
| ATGCTTGC | -0.0644 |
| CGAAGCTA | 0.0133 |
| GCAACAAA | 0.197 |
| CCGACAGA | -0.0857 |
| CGCCTCTA | 0.0912 |
| AGAGTGAA | 0.057 |
| ACGACCAC | 0.0611 |
| AGAGGCGC | 0.0173 |

| Sequence | PBM E-score |
| --- | --- |
| GGCTAGAA | -0.0974 |
| ACGCCCCT | -0.183 |
| CTAACAAG | 0.036 |
| ACGTTCCT | -0.016 |
| GGAATACA | -0.0611 |
| ACCAAGAG | -0.0362 |
| CGGCGCCC | 0.143 |
| GAGCTCAA | 0.0144 |
| ATCGGGGA | -0.274 |
| AGCGGATA | -0.265 |
| CGGCTCTC | -0.00463 |
| GAGGTTCA | 0.104 |
| ACAACAGA | 0.0382 |
| CGTACTTC | 0.0787 |
| ATAGGCAG | 0.0943 |
| ACATATCG | 0.0617 |
| TACCCGAA | -0.133 |
| CGCACCTA | -0.0259 |
| AAACCGAT | -0.0766 |
| CAGCGGCC | -0.259 |
| CGTTATAG | 0.0827 |
| ATGTGGTG | 0.151 |
